This is an account of results in the supplement of paper PMC3334620.

Over roughly 33,000 sequences, “E-score (-0.5 to 0.5)” has its median near -0.054; the highest 2% begin near 0.35. Some of the results follow.

This assay deals with T1, Stb5 (UniProt P38699).
T1 sequence: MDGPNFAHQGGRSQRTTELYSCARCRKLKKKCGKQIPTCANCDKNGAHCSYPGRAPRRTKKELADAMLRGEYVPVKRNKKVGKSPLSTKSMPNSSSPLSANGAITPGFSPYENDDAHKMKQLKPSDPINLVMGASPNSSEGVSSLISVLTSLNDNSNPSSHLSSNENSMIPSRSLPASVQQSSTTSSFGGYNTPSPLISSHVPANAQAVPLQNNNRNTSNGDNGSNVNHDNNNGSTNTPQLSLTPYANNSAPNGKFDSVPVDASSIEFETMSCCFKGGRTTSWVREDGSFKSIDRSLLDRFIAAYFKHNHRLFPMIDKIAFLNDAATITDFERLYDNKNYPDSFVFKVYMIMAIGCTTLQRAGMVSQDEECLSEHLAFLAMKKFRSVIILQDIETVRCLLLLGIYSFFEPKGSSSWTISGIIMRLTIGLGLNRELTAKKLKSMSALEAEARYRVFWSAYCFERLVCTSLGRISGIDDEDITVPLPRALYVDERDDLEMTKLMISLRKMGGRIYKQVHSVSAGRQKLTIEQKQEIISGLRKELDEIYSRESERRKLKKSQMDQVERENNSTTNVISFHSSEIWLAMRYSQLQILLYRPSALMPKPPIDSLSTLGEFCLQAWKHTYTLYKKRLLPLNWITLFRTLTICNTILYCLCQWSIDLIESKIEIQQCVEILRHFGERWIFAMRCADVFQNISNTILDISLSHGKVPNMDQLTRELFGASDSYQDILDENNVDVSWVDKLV
As to the kind of experiment: PBM E-score (8-mer binding enrichment) (E-score (-0.5 to 0.5)); higher = stronger / more preferred TF binding; most listed sequences are background and not binding sites. Particulars: protein concentration: 200 nM; construct: GST-full length. The essentials: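 Universal all-10-mer Agilent arrays, double-stranded by primer extension on fresh or once-stripped slides, were probed with about 100-200 nM GST-tagged yeast transcription factors made by PURExpress. Fluorescent anti-GST detected bound protein, and masliner normalised the scans. E-scores from the Universal PBM Analysis Suite were given to each ungapped eight-base word pooled with its reverse complement.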
In the case of AAAGGATC, the “PBM E-score” value was -0.0912.

Consider CGTCATCC, for which the “PBM E-score” value was -0.067.

Consider CCTGATCA, for which the “PBM E-score” value is -0.0914.

With ATCTCATC, the “PBM E-score” value was -0.0881.

Regarding AGCCTCAT, the “PBM E-score” value was -0.229.

Turning to AAGGACTT, the “PBM E-score” value was 0.064.

For CATGGTTA, the “PBM E-score” value is -0.136.

Consider CGAACCCA, for which the “PBM E-score” value is -0.103.

AAACTCTC: the “PBM E-score” value was -0.0106.

As to CTGTACGA, the “PBM E-score” value is -0.123.

Regarding AGTGTGAG, the “PBM E-score” value was -0.26.

Turning to CGCCACCG, the “PBM E-score” value was 0.108.

On to CAAATCCA, for which the “PBM E-score” value is -0.178.

Turning to GTTTAGGA, the “PBM E-score” value was 0.131.

Consider ATTGGCGA, for which the “PBM E-score” value is -0.149.

Turning to ACCAGTAG, the “PBM E-score” value is -0.217.

With CTTGGATA, the “PBM E-score” value was 0.12.

As to AAGGGTCT, the “PBM E-score” value was -0.149.

Regarding AATCACCT, the “PBM E-score” value is 0.058.

AGAGCGGA: the “PBM E-score” value was found to be 0.312.

In the case of CCGTATGC, the “PBM E-score” value was 0.185.

Turning to AACCTAAG, the “PBM E-score” value is -0.111.

As to GTCCATGA, the “PBM E-score” value was -0.0776.

For the sequence GCGCGACC, the “PBM E-score” value is -0.0254.

For CAGAAGGA, the “PBM E-score” value is -0.132.

As for AACAGATG, the “PBM E-score” value was -0.269.

As for TTCTTAAA, the “PBM E-score” value is -0.168.

On to AGCCCTCG, for which the “PBM E-score” value was -0.261.

Consider CAGTTAAA, for which the “PBM E-score” value is -0.0696.

Turning to TACCTAGA, the “PBM E-score” value is -0.0851.

On to AAACAAAA, for which the “PBM E-score” value is -0.0307.

Turning to CCCGCAAA, the “PBM E-score” value is 0.0474.

Regarding ACAAAAAA, the “PBM E-score” value was -0.0653.

AACTAGGG: the “PBM E-score” value is -0.246.

As for CTCGCCTA, the “PBM E-score” value is -0.117.

With CACTGTCA, the “PBM E-score” value was -0.352.

Take CAGGAAAA: the “PBM E-score” value is -0.0422.

For CGCGAGAA, the “PBM E-score” value came to 0.124.

In the case of AAAGACAT, the “PBM E-score” value is -0.187.

For the sequence TACAAATA, the “PBM E-score” value is -0.0619.

As for AGCCCGCT, the “PBM E-score” value was determined as 0.317.

Turning to ATACGTCG, the “PBM E-score” value was 0.137.

For the sequence CGACCATA, the “PBM E-score” value was 0.0311.

For GGTATTAA, the “PBM E-score” value came out at 0.404.

As for AGACTGAG, the “PBM E-score” value was -0.217.

As to CATTTGTA, the “PBM E-score” value is -0.114.

For the sequence CGGACCAC, the “PBM E-score” value worked out at 0.134.

For AGGGGCAT, the “PBM E-score” value is -0.248.

For the sequence AAAGTTAC, the “PBM E-score” value was -0.18.

As for CGAACTAA, the “PBM E-score” value is -0.266.

For CGCCTGCA, the “PBM E-score” value is -0.0516.

Turning to ACGGACTG, the “PBM E-score” value came to 0.233.

On to AAAAACCA, for which the “PBM E-score” value was 0.109.

On to GACGACGA, for which the “PBM E-score” value is -0.0925.

Turning to GGAAATCC, the “PBM E-score” value turned out to be 0.238.

For CATGTGAG, the “PBM E-score” value is -0.363.

GCGATAAC: the “PBM E-score” value is 0.105.

As to AATGACCT, the “PBM E-score” value was -0.0215.

Turning to ATTGGAAC, the “PBM E-score” value is -0.00847.

In the case of CTCTGTTA, the “PBM E-score” value was -0.0235.

As for GTGTGGAA, the “PBM E-score” value is -0.0163.

Turning to CCATGGAA, the “PBM E-score” value was -0.132.

Turning to TAGTATCA, the “PBM E-score” value was -0.0159.

As for GAAAGGAA, the “PBM E-score” value came to 0.0607.

AGGTGATG: the “PBM E-score” value is -0.0285.

As for CTACATCA, the “PBM E-score” value is -0.153.

As for GCACTGTA, the “PBM E-score” value is -0.156.

On to CTGACCAG, for which the “PBM E-score” value is -0.284.

As for AGCGAGAG, the “PBM E-score” value was -0.135.

Turning to ATAGACGG, the “PBM E-score” value was found to be 0.133.

Regarding AGTAGAGG, the “PBM E-score” value was -0.316.

Take TAACTGTA: the “PBM E-score” value is -0.26.

For GCCACGAC, the “PBM E-score” value came to 0.134.

Consider AGTTACGC, for which the “PBM E-score” value is -0.0614.

Turning to AAACTGAA, the “PBM E-score” value is -0.004.

ACGACCGG: the “PBM E-score” value is 0.232.

Consider ATTATGTG, for which the “PBM E-score” value was determined as 0.0509.

Regarding ACTTATTG, the “PBM E-score” value is -0.0331.

As for AAGGGTTC, the “PBM E-score” value is -0.0836.

Consider ATGTCGTC, for which the “PBM E-score” value was -0.108.

With ACTTCGCC, the “PBM E-score” value is -0.13.

In the case of CCTTTACA, the “PBM E-score” value was -0.195.

On to CCACGATA, for which the “PBM E-score” value is -0.0459.

Take AAGGATAC: the “PBM E-score” value is -0.088.

On to CGAGTTCA, for which the “PBM E-score” value is -0.308.

As for GGGCCTAA, the “PBM E-score” value was found to be 0.275.

On to ACCTCGTG, for which the “PBM E-score” value is -0.221.

On to CTCTAATA, for which the “PBM E-score” value was -0.188.

On to AACAGCCA, for which the “PBM E-score” value is -0.168.

For the sequence AATACAGT, the “PBM E-score” value was -0.121.

Consider CGAACGTC, for which the “PBM E-score” value is -0.113.

Consider AAAGGGTT, for which the “PBM E-score” value amounted to 0.0114.

With AAGTTTAA, the “PBM E-score” value was -0.0638.

With GACCTGCA, the “PBM E-score” value was -0.147.

As to ACATACAA, the “PBM E-score” value was -0.04.

Consider CTCACGTA, for which the “PBM E-score” value is -0.109.

For AAACCCTG, the “PBM E-score” value is -0.0309.

On to TACCCCAA, for which the “PBM E-score” value was -0.157.

Consider CCCCAGCG, for which the “PBM E-score” value was -0.0131.

Consider CACTCGGG, for which the “PBM E-score” value is -0.0313.

Consider CATACAAA, for which the “PBM E-score” value was -0.0333.

For the sequence AACGAGAC, the “PBM E-score” value is -0.0851.

As to AAAATTAG, the “PBM E-score” value amounted to 0.0305.

On to AGGTGCTG, for which the “PBM E-score” value was -0.146.

In the case of AGATTGCC, the “PBM E-score” value amounted to 0.0663.

As for CGACAATA, the “PBM E-score” value is 0.0713.

As to CATCCGTC, the “PBM E-score” value was determined as 0.103.

As to TCGCATAA, the “PBM E-score” value is -0.0806.

In the case of GTGATACA, the “PBM E-score” value is 0.0193.
